Data as given in PubChem BioAssay AID1159614 (National Center for Advancing Translational Sciences (NCATS), 2016).
Out of some 45,000 compounds screened, about 65 (0.1%) were called active. Calls follow the shape of the dose curve; as a rule, active = well fitted activation curve with a large enough effect; inconclusive = small, poorly fitted or top-dose-only effect; inactive = no such curve, though single readings can be large or run the other way. This is one part of the list.

target: Galactocerebrosidase (Homo sapiens) (UniProt P54803); test: A Novel Cell-Based Assay to Identify Small Molecules for B -Galactocerebrosidase; conditions: 145M-Twi-hGALC-G270D cells (Twitcher mouse brain line with human GALC G270D), HMU-beta-Gal fluorescence, 48 h; series mostly up to 57.5 µM; activation: at the top concentration; also: 0% is about no effect; nearly all actives have a fitted effect of over 65% in size
Sequence of UniProt P54803 (P54803 whole entry, looked up): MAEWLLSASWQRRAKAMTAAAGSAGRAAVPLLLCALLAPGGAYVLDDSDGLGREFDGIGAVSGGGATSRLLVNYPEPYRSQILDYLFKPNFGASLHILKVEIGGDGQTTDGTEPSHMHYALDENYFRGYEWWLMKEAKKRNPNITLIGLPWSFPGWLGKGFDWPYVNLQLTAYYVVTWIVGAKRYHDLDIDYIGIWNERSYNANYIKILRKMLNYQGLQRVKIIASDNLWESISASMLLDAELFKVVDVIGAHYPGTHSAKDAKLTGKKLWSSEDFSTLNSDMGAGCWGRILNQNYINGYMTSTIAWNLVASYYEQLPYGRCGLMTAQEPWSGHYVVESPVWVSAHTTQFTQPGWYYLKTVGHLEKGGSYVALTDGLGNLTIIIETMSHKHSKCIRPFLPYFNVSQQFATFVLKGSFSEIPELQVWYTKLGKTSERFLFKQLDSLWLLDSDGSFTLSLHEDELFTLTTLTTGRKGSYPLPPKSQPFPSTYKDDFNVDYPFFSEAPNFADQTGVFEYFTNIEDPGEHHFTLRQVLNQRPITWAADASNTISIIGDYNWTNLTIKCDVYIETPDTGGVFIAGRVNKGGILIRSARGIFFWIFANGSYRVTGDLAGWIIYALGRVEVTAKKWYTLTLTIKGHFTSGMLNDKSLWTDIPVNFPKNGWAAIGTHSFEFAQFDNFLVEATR
Procedure, shortened: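 Mutant human GALC (G270D), stably expressed in a Twitcher mouse brain cell line lacking endogenous GALC, is measured in live-treated cells via 6-hexadecanoylamino-4-methylumbelliferyl-β-galactoside hydrolysis (0.1 mM final, pH 5.2) with fluorescent detection.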

activation, inactive:
Cc1cccc(C)c1Nc1c(-c2ccccn2)nc2ccc(Cl)cn12 -11.3%
Cc1cccc(OC(=O)c2snnc2C)c1 -9.43%
COc1ccc(-c2nc(CSCC(=O)N3CCN(c4ccccc4F)CC3)c(C)o2)cc1 -12.2%
Cc1cccc(NC(=O)C(=O)NCCCN2CCOCC2)c1 3.95%
CCOc1ccc(NC(=O)c2sc(-n3nc(C)c(CCC(C)C)c3C)nc2C)cc1 -7.25%
COc1ccc(NC(=O)c2nc(SCc3ccc(F)cc3)ncc2Cl)cc1 -12.2%
O=C(NCCc1ccc(Cl)cc1)c1ccc(Nc2nc3ccccc3n3nnnc23)cc1 -9.36%
COc1ccc(CNCc2ccc(C(=O)O)s2)cc1 -9.07%
CCOc1ccccc1NC(=O)CSc1ncc2c(n1)-c1ccccc1N(CC)S2(=O)=O -13.4%
CCCCOC(=O)CSc1ncnc2sc3c(c12)CCC(C)C3 (stereo not drawn) -12.2%
CC1=C(c2ccc(C)cc2)S(=O)(=O)NC1=NCc1ccccc1Cl -6.63%
C=Cc1ccc(Cn2c(C(=O)O)c(CNCCc3ccco3)c3ccc(C)cc32)cc1 -2.74%
COC(=O)c1cc2sccc2n1Cc1nc(-c2cccc(Cl)c2)oc1C -1.68%
OCC(O)CN1CCN(c2ccccc2)CC1 (stereo not drawn) -9.96%
CCOc1ccccc1CNC(=O)c1ccc2nc(N3CCC(C)CC3)sc2c1 -10.3%
Cc1ccccc1Nc1c(-c2ccc(N3CCOCC3)cc2)nc2cccc(C)n12 -13.5%
CCC(C)Nc1nc2c(c(=O)[nH]c(=O)n2C)n1Cc1ccc(F)cc1 (stereo not drawn) -18.4%
Cc1ccc(-n2ncc3c(NCCc4ccc(S(N)(=O)=O)cc4)ncnc32)cc1 -6.06%
O[C@@H](COc1cccc2ncccc12)CN1CCN(C2c3ccccc3[C@@H]3[C@H](c4ccccc42)C3(F)F)CC1 (stereo partly drawn) -5.44%
COc1ccccc1N1CCN(C(=O)c2nn(C)c3c2CS(=O)(=O)c2ccccc2-3)CC1 -4.79%
Cc1ccccc1-c1nc(CNC(=O)NC2CCCCC2)c(C)o1 -7.7%
Cn1ccc2cc(S(=O)(=O)N3CCCC(C(=O)NCc4ccccc4F)C3)ccc21 (stereo not drawn) -10.2%
CC(C)c1ccc(C2CC(=O)N3CN(C4CCCCC4)CSC3=C2C#N)cc1 (stereo not drawn) -16.3%
CCCCN(CCCC)CCCNC(=O)c1cc(-c2ccc(Cl)s2)nc2ccccc12 -11.4%
COc1ccc(-n2ncc3c2ncn2nc(-c4ccc(OC)c(OC)c4)nc32)cc1 -10.2%
CC1=C(C(=O)Nc2ccccc2)C(c2ccc(Br)cc2)n2nc(CCCO)nc2N1 (stereo not drawn) -11.2%
CCOC(=O)c1ccc(NC(=O)Cc2noc3ccc(C)cc23)cc1 -12.8%
Cn1cc(S(=O)(=O)N2CCCC2)cc1C(=O)Nc1ccc(F)cc1F -12%
COc1cccc(CNC(=O)CN2C(=O)COc3ccc(S(=O)(=O)N4CCCCC4)cc32)c1 6.22%
CCN(CC)c1ccc(CN(C(=O)c2cc(=O)c3ccccc3o2)C2CCS(=O)(=O)C2)cc1 (stereo not drawn) -20.7%
CCn1cc2nc(SCc3cc(C)ccc3C)n(Cc3ccc(Cl)cc3)c(=O)c2n1 -18.6%
Cc1ccc(-c2nc3sc(CCNC(=O)c4ccc(F)c(F)c4)c(C)n3n2)cc1 6.18%
CCCCC12CN3CC(C)(CN(C1)C3c1ccc(OCc3ccccc3)cc1)C2=O (stereo not drawn) -28.9%
CC1=C(C(=O)Nc2ccccc2Br)C2(CCC(C)CC2)OC1=O (stereo not drawn) -0.0584%
O=C(CCCCCn1c(=O)[nH]c2ccccc2c1=O)N1CCN(c2cccc(C(F)(F)F)c2)CC1 -8.37%
Cc1ccc(CNC(=O)CCCCCn2c(=O)c3sccc3n(CC(=O)N3CCCCC3C)c2=O)cc1 (stereo not drawn) -10.6%
O=C(C1CCN(S(=O)(=O)c2cccs2)CC1)N1CCN(c2ccccc2F)CC1 4.29%
CCCn1cc(S(=O)(=O)c2ccc(C)c(C)c2)c(=O)c2cc(F)c(N3CCCCC3)cc21 -13.9%
CC(C)NC(=O)c1ccc(CSc2nc3ccncc3n2Cc2cccc(F)c2)cc1 -10.3%
CCC(CC)C(=O)Nc1ccc(S(=O)(=O)N2CCC(c3nc4ccccc4s3)CC2)cc1 -3.81%
Cc1nc(-c2ccc(S(=O)(=O)N3CCN(c4ccccc4F)CC3)cc2)co1 -2.61%
Cc1ccccc1NC(=O)c1c(C)oc2ccc(O)c(CN3CCCCCC3)c12 -5.23%
COc1ccc(C)cc1NC(=O)CN(C)S(=O)(=O)c1ccc2c(c1)c(=O)n(C)c(=O)n2C 9.21%
FC(F)(F)c1cccc(Nc2nc3nonc3nc2Nc2ccc(Cl)cc2)c1 -10.2%
CCN(C(=O)Cn1c(C(=O)OC)cc2sccc21)c1cccc(C)c1 -11.5%
CNC(=O)c1c(I)c(NC(C)=O)c(I)c(C(=O)O)c1I -13.2%
Cc1ccccc1NC(=O)c1sc2nc(-c3cc4ccccc4oc3=O)[nH]c(=O)c2c1C -16.6%
CC(=O)Nc1cccc(NC(=O)CSc2nccn2Cc2ccccc2)c1 -15.2%
Cc1ccccc1-c1noc(-c2ccc(NCc3cccnc3)c([N+](=O)[O-])c2)n1 -40.6%
CC1=C(c2ccc(C(C)C)cc2)S(=O)(=O)N=C1N1CCC(C(=O)NCc2ccc(C)o2)CC1 -14.1%
O=C(NC1CCCCC1)c1ccc(CSc2nc3cccnc3n2Cc2ccccc2)cc1 -8.35%
Cc1nc2c(-c3ccc(F)cc3)c(C)nn2c(C)c1CCC(=O)NCc1ccc(F)cc1 -4.42%
CCOC(=O)c1c(C)[nH]c(CCC(=O)NCc2ccc(OC)cc2OC)c1C -11.1%
COc1ccc(OCCCn2c(C3CC(=O)N(c4ccc(F)cc4)C3)nc3ccccc32)cc1 (stereo not drawn) -30.8%
CC(=O)c1cccc(NC(=O)Cn2ccn3nc(-c4ccccc4)cc3c2=O)c1 -2.58%
Cc1cc(Nc2cc(Cl)ccc2C)n2nc(-c3ccccc3)nc2n1 -13.3%
Cc1c(CC(=O)NCCc2ccccc2)c(=O)oc2c(C)c3occ(C(C)(C)C)c3cc12 -11.4%
Cc1cc(C)c2c(NC(=O)c3ccccc3Cl)c(C(=O)NCc3ccc(Cl)cc3)sc2n1 -11.5%
O=C(COc1ccccc1-c1nc(-c2ccccc2)no1)Nc1ccc([N+](=O)[O-])cc1 -12.4%
Cc1ccc(CN(Cc2cccn2-c2nnc(N3CCCC3=O)s2)C(=O)Nc2ccccc2Cl)cc1 -4.59%
Cc1cccc(-n2c3nc(=O)[nH]c(=O)c-3cc3ccc(Cl)cc32)c1C 1.08%
CCOc1ccc(-c2cc(C(=O)NCCc3ccc(C)cc3)c3ccccc3n2)cc1 -12.5%
COc1ccc(NC(=O)c2nnn(-c3ccc(C(C)C)cc3)c2C)c(OC)c1 -10.3%
CC(C)CCNC(=O)c1cc(-c2cccnc2)nc2ccc(S(=O)(=O)N3CCC(C)CC3)cc12 -6.56%
O=C(CSc1nc2c([nH]c3ccccc32)c(=O)n1-c1ccccc1)N1CCCCC1 -1.19%
COc1ccc(OC)c(-c2noc(N3CCN(c4cccc(C(F)(F)F)c4)CC3)n2)c1 -0.874%
COc1cc(OC)c(NC(=O)c2ccc(-n3cnc4cccnc43)cc2)cc1Cl -18.8%
O=C(NCCCN1CCN(c2ccc(F)cc2)CC1)Nc1ccccc1Cl -13.3%
CCOc1cccc2sc(N3CCN(C(=O)c4ccco4)CC3)nc12 -7.55%
Cn1c(CN2CCOCC2)nc2cc(NC(=O)c3ccccc3[N+](=O)[O-])ccc21 -3.75%
CCOc1ccccc1C(=O)N1CCc2cc(OC)c(OC)cc2C1COc1ccc(OC)cc1 (stereo not drawn) -17.8%
Cc1ccc(-c2nc3cccc(C)n3c2Nc2ccc3c(c2)OCO3)o1 -12.9%
Cc1nn(-c2ccccc2)c(OC(=O)c2ccc(Cl)cc2)c1S(=O)(=O)c1ccccc1 -11.6%
COc1cccc(CNC(=O)Cn2ncn3c(cc4ccccc43)c2=O)c1 -4.54%
COc1ccc(OC)c(NC(=O)c2cc3cccc(OC)c3oc2=O)c1 -17.4%
CCCNC(=O)c1ccc(Cn2c(SCC(N)=O)nc3ccccc3c2=O)cc1 -7.65%
O=C(c1cc(-c2ccc(Br)cc2)n[nH]1)N1CCN(S(=O)(=O)c2ccc(Cl)s2)CC1 -1.25%
CC(C)CC(=O)Nc1ccc2nc(SCC(=O)N3CCOCC3)sc2c1 -10.9%
COCCCn1c(SCC(=O)Nc2ccc(OC)cc2)nc2c(sc3ccccc32)c1=O -6.84%
O=C(CSc1nc(=O)n(CCN2CCOCC2)c2c1CCC2)Nc1ccc(F)cc1F -15.4%
CCC(=O)Oc1c(Sc2ccc(C)cc2)c(C)nn1-c1ccccc1 -17.4%
COc1ccc(CNS(=O)(=O)c2cc3c(cc2Cl)NC(=O)CO3)cc1 -12.9%
CCOC(=O)c1cc(-c2ccc(F)cc2)n(CCC(=O)Nc2cc(OC)cc(OC)c2)c1C -26.8%
O=C(CSc1nc2ncccc2o1)Nc1ccc(Cl)cc1F -13.1%
O=C(Nc1ccccc1C(F)(F)F)C1CCN(S(=O)(=O)c2ccccc2)CC1 -15.7%
Cn1c(=O)c2c(nc(N3CCOCC3)n2Cc2ccccc2F)n(C)c1=O -9.32%
O=C(Cn1cc(SCc2ccc(Cl)cc2)c2ccccc21)N1CCOCC1 -14.4%
CCCc1nn2c(=O)cc(COC(=O)c3cccc(NC(=O)c4ccc(OCC)cc4)c3)nc2s1 -15.2%
COc1cc(C2c3c(-c4cc(C)ccc4O)n[nH]c3C(=O)N2Cc2ccco2)cc(OC)c1OC (stereo not drawn) -8.02%
CC(C)Oc1ccc(C(=O)Nc2nnc3n2CCS3)cc1 -19%
COC(=O)CSc1nc2sc3c(c2c(=O)n1-c1ccccc1)C(C)CCC3 (stereo not drawn) -36%
COc1ccc(NC(=O)CSc2nc3ccccc3n2CC(=O)N(C)C2CCCCC2)cc1 -0.298%
COc1ccc(NC(=O)c2cc(S(=O)(=O)N3CCCC(C)C3)cn2C)c(OC)c1 (stereo not drawn) -6.12%
Cc1cc(Cl)ccc1NS(=O)(=O)c1c(C(=O)N2CCCCCC2)c(C)n(C)c1C -14.1%
COc1ccc(CN(Cc2ccco2)C(=O)COc2ccccc2Cl)cc1 -12.4%
COc1ccc(-c2cc(OC(=O)c3cccc(Cl)c3)c3c(C)oc(C)c3c(=O)c2)cc1OC -15%
Cc1ccc(C)c(Cn2c3ccccc3c3cnn(CC(=O)NC4CCCCCC4)c(=O)c32)c1 -13.9%
Cc1ccc(-c2c3c(=O)n(C)c(=O)n(C)c3c3c(-c4cccc(C)c4)nc4ccccc4n23)cc1 -25.6%
